In PubChem BioAssay AID1347430 (National Center for Advancing Translational Sciences (NCATS), 2020):
Hit rate of the full screen: of about 91,000 compounds, about 130 (0.14%) were called active. The shares of active, inactive and inconclusive entries below differ from those in the screen. Calls follow the shape of the dose curve; as a rule, active = well fitted inhibition curve with a large enough effect; inconclusive = small, poorly fitted or top-dose-only effect; inactive = flat fitted curve, though single readings scatter. A potency beside an inconclusive call is a rough fit, not a confirmed value.

The molecules below were run on Uracil-DNA glycosylase (assay: Primary qHTS assay for inhibitors of Activation Induced Cytidine Deaminase (AID): UDG Counterscreen signal). Details: FRET deamination/UDG coupled assay, UDG read, 4 h; series mostly up to 115 µM.
Also: nearly all actives have a fitted effect of over 65% in size.
Potency is read from the fitted curve at half-maximal effect; tags tell the direction and shape of the fitted curve.

| Compound | Potency |
| --- | --- |
| CC(C)(C)c1ccc(C2Sc3ccccc3NC3=C2C(=O)c2ccccc23)cc1 (stereo not drawn) | active: 89.1 µM |
| Cc1c(Br)cc(C(=O)NC2CC3CCC2(C)C3(C)C)c(C)c1C (stereo not drawn) | inactive |
| COc1ccc(Cn2c(C(=O)O)c(CNCc3cccc(OC)c3)c3ccc(C)cc32)cc1 | inconclusive: 39.8 µM [inhibitor, single point] |
| CSC1=N/C(=C\c2cccc(OCc3ccccc3)c2)C(=O)S1 | inactive |
| COc1ccc(N2CCN(C(=O)c3c(C)oc4ncnc(N5CCCCC5)c34)CC2)cc1 | inconclusive: 100 µM [inhibitor, partial curve, poor fit] |
| O=C(Cc1ccccc1)N(Cc1cccnc1)c1nc2c(F)cccc2s1 | inconclusive: 89.1 µM [inhibitor, single point] |
| CCCC(=O)N1CC(=O)Nc2ccc(Cl)cc2C1c1ccc(F)cc1 (stereo not drawn) | inactive |
| Cc1csc2nc(COC(=O)COc3ccccc3F)cc(=O)n12 | inconclusive: 89.1 µM [inhibitor, single point] |
| N#Cc1ccsc1NC(=O)CSc1nnc(-c2ccccc2F)n1C1CCCCC1 | inactive |
| CCOc1ccc(CCNC(=O)c2nc(-c3cccc(F)c3)n3c2CCCCC3)cc1OCC | inconclusive: 20 µM [inhibitor, partial curve, poor fit] |
| O=S(=O)(CCN1CCN(c2cnccn2)CC1)c1ccccc1 | inactive |
| CSc1ccccc1NC(=O)CC(C)C | inactive |
| O=C1CCC(C(=O)OCc2cccc(Cl)c2)=NN1 | inconclusive: 89.1 µM [inhibitor, single point] |
| O=C(Nc1cccc(O)c1)c1cc2nc(-c3ccc(Br)cc3)cc(C(F)(F)F)n2n1 | inconclusive: 89.1 µM [inhibitor, partial curve, poor fit] |
| CCOc1ccc(C(=O)Nc2cc(-c3nc4cc(OC)ccc4o3)ccc2C)cc1[N+](=O)[O-] | inconclusive: 89.1 µM [inhibitor, single point] |
| CCNC(=O)c1ccc2c(c1)nc1n2CCCCC1 | inconclusive: 89.1 µM [inhibitor, single point] |
| O=C(CSc1nc(=O)[nH]c2c1CCCC2)NCc1ccccc1Cl | inconclusive: 79.4 µM [inhibitor, single point] |
| Cc1ccc(N(Cc2cccs2)C(=O)C(C)Oc2ccc(Cl)c(C)c2)cc1 (stereo not drawn) | inconclusive: 79.4 µM [inhibitor, partial curve, poor fit] |
| Cc1ccc(-c2nc(S(=O)(=O)c3ccc(F)cc3)c(N(C)C)o2)cc1 | inconclusive: 89.1 µM [inhibitor, partial curve, poor fit] |
| O=C(NCc1ccccc1Cl)c1ccc(CS(=O)(=O)c2ccc(Br)cc2)o1 | inconclusive: 100 µM [inhibitor, single point] |
| CCOc1cc(CNS(=O)(=O)c2ccc3c(c2)C(C)(C)C(=O)N3)cc(OCC)c1OCC | inconclusive: 89.1 µM [inhibitor, single point] |
| CCCCN1CC(c2nc3ccccc3n2CCCCOc2cc(C)cc(C)c2)CC1=O (stereo not drawn) | inconclusive: 89.1 µM [inhibitor, single point] |

| Compound | Potency |
| --- | --- |
| Cc1cccc(NC(=O)CSc2nc3ccc(NC(=O)COc4ccccc4C)cc3s2)c1 | inconclusive: 89.1 µM [inhibitor, single point] |
| Oc1ccc(Nc2nc3ccccc3n3cnnc23)cc1 | inconclusive: 100 µM [inhibitor, single point] |
| CCOC(=O)c1cnc2c(C)cc(C)cc2c1Nc1cccc(C(=O)O)c1 | inconclusive: 89.1 µM [inhibitor, partial curve, poor fit] |
| Cc1ccccc1-c1noc(C23CC4CC(CC(C4)C2)C3)n1 | inactive |
| O=C(c1ccccc1Br)N(Cc1ccco1)C1CCS(=O)(=O)C1 (stereo not drawn) | inconclusive: 100 µM [inhibitor, single point] |
| COc1ccc(C(=O)Nc2ccc(-c3nc4ccccc4o3)cc2)cc1OC | inactive |
| Cc1ccc(C)c(N2CCN(C(=O)Nc3cn(CC(C)C)c(=O)c4ccccc34)CC2)c1 | inconclusive: 44.7 µM [inhibitor, partial curve, poor fit] |
| O=C(Nc1ccc2nc(SCCOc3ccccc3)sc2c1)c1cccs1 | inactive |
| COc1ccc(CNC(=O)Cn2c(=O)oc3cc(S(=O)(=O)N4CCC(C)CC4)ccc32)cc1 | inconclusive: 89.1 µM [inhibitor, partial curve, poor fit] |
| Cc1ccc(C)n1-c1c(C(=O)NCC(C)c2ccccc2)sc2ncccc12 (stereo not drawn) | inconclusive: 56.2 µM [inhibitor, partial curve, poor fit] |
| Cc1ccc(-c2csc(Nc3ccc(N(C)C)cc3)n2)cc1 | inactive |
| CC(C)c1ccc(C(=O)NCc2ccco2)cc1 | inactive |
| CCC(=O)Nc1ccc2c3c(cccc13)CC2 | inactive |
| CCOc1cc(C2C(C(=O)OC)=C(C)NC3=C2C(=O)c2ccccc23)cc(Cl)c1O (stereo not drawn) | inconclusive: 89.1 µM [inhibitor, single point] |
| COc1ccc(NC(=O)CN(Cc2ccccc2)S(=O)(=O)c2ccc(C)cc2)cc1Cl | active: 89.1 µM |
| Fc1ccc(-c2nc(Nc3cccc(Cl)c3)nc3c2COc2ccccc2-3)cc1 | inconclusive: 56.2 µM [inhibitor, partial curve, poor fit] |
| COc1cc(CN(C(=O)Nc2ccccc2)c2ccccn2)cc(OC)c1OC | inconclusive: 89.1 µM [inhibitor, single point] |
| CCCCNC(=O)C1CCCN(Cc2nc(-c3ccc(Cl)cc3)oc2C)C1 (stereo not drawn) | inconclusive: 89.1 µM [inhibitor, single point] |
| Cc1ccc(Cn2c(=O)c3cccnc3n(CC(=O)Nc3cccc(C(F)(F)F)c3)c2=O)cc1 | inconclusive: 89.1 µM [inhibitor, single point] |
| CC(C)c1ccc(S(=O)(=O)c2nnn3c2nc(NCCc2ccccc2)c2sccc23)cc1 | inconclusive: 89.1 µM [inhibitor, single point] |
| C[C@H](NS(=O)(=O)/C=C/c1ccccc1)C(=O)OCC(=O)c1c[nH]c2ccccc12 | inactive |
